Test results reported in PubChem BioAssay AID485294 (National Center for Advancing Translational Sciences (NCATS), 2010).
Hit rate of the full screen: of about 370,000 compounds, about 150 (0.041%) were called active. Inconclusive means that the source gave no clear call. Such entries were picked first, then a sample of the others. The call rests on the fitted dose curve; in most records, active means well fitted inhibition curve with a large enough effect; inconclusive means small, poorly fitted or top-dose-only effect; inactive means flat fitted curve, though single readings scatter. Potencies of inconclusive entries are left out as doubtful fits.

biological target: Beta-lactamase (Escherichia coli (strain K12)) (UniProt P00811); test: qHTS Inhibitors of AmpC Beta-Lactamase (assay with detergent); details: AmpC hydrolysis of nitrocefin, absorbance 480 nm, 0.01% Triton; activity change, negative = inhibition: at 114 µM (top of the series); further: nearly all actives have a fitted effect of over 25% in size;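 on activity change, negative = inhibition: 0% = no-compound wells and -100% = no-enzyme wells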
Sequence of UniProt P00811 (P00811 whole entry, looked up): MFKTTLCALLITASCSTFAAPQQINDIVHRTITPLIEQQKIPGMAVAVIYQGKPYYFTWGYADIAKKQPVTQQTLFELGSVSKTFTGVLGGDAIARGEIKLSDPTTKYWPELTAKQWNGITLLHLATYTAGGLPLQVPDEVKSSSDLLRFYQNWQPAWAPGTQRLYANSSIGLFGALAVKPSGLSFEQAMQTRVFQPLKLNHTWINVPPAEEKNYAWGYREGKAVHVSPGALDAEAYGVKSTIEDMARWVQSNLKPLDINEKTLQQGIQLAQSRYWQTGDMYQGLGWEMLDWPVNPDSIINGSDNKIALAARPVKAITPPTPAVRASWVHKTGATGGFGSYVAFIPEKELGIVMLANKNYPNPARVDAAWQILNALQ
Outline: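 AmpC (5.3 nM in the dispensed reagent) in 20 mM phosphate pH 7.0 with 0.01% (detergent screen) or 0.0001% Triton X-100 was preincubated with compounds for 15 min at room temperature. Nitrocefin was then added from an 800 uM solution, and hydrolysis was followed at 480 nm.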
Potency means the concentration at half of the fitted maximal effect; tags describe the fitted curve by direction and shape.

Row | Structure (SMILES) | activity change, negative = inhibition | Potency
1 | CCCCC1(O)CC(C(F)(F)F)=NN1C(=O)COc1ccccc1 (configuration not stated) | inactive: -2.24% | –
2 | Nc1nc(NCc2ccccc2Cl)n(-c2ccccc2)n1 | – | inconclusive [inhibitor, full curve, poor fit]
3 | Cc1ncc([N+](=O)[O-])n1CC(=O)NC1CCCCC1 | – | inconclusive [inhibitor, partial curve]
4 | CCOC(=O)N1CCN(C(=O)CN2C(=O)NC(C)(c3ccc4ccccc4c3)C2=O)CC1 (configuration not stated) | – | inconclusive [inhibitor, full curve, poor fit]
5 | CCC1=NN2C(=N)/C(=C\c3cccn3-c3c(C)cccc3C)C(=O)N=C2S1 | – | inconclusive [inhibitor, single point]
6 | Cc1c(C(=O)Nc2ccc(N3CCOCC3)cc2)cccc1[N+](=O)[O-] | – | inconclusive [inhibitor, full curve]
7 | CN(CC(=O)Nc1cccc(F)c1)C(=O)C1CC(=O)N(Cc2ccccc2)C1 (configuration not stated) | – | inconclusive [inhibitor, partial curve]
8 | CCN(C(=O)Cn1ccc(C(F)(F)F)n1)c1c(N)n(Cc2ccccc2)c(=O)[nH]c1=O | – | inconclusive [inhibitor, full curve, poor fit]
9 | O=C(O)c1ccccc1-c1ccc(/C=c2\sc3nc4cc(Br)cnc4n3c2=O)o1 | inactive: -0.0585% | –
10 | COc1cccc(CN2CC(C(=O)NC3CCC3)CCC2=O)c1 (configuration not stated) | – | inconclusive [inhibitor, full curve]
11 | O=C(CS(=O)(=O)c1c[nH]c2ccccc12)N1CCCc2ccccc21 | – | inconclusive [inhibitor, full curve, poor fit]
12 | Cc1ccc(S(=O)(=O)NC(=O)Nc2c(C)n(C)n(-c3ccccc3)c2=O)cc1 | – | inconclusive [inhibitor, full curve, poor fit]
13 | Cc1nc(Nc2ccc(O)cc2)c2c3c(sc2n1)CCCC3 | inactive: -13.9% | –
14 | CC1CCCCN1C(=O)C1CC(c2ccc(F)cc2)=NO1 (configuration not stated) | inactive: -0.676% | –
15 | COc1cc(C(=O)NC(=S)Nc2nc(-c3ccc(F)cc3)cs2)cc(OC)c1OC | – | inconclusive [inhibitor, single point]
16 | Cc1nn(-c2ccccc2)c(Cl)c1/C=N/NC(=O)c1cccc(S(=O)(=O)N2CCCC2)c1 | inactive: -1.95% | –
17 | Cc1cccc(C(=O)NCC(=O)NCC(c2ccco2)N2CCCCC2)c1 (configuration not stated) | – | inconclusive [inhibitor, full curve]
18 | O=S1(=O)NC(CC2=CCCCC2)C2CCCCC2O1 (configuration not stated) | – | inconclusive [inhibitor, partial curve, poor fit]
19 | CCOc1ccc(CNC(=O)c2cccc(NC(=O)N3CCSc4ncccc43)c2)cc1OC | inactive: 24.4% | –
20 | Cc1cc2c(cc1S(=O)(=O)CCC(=O)N1CCC(C)CC1)OCC(=O)N2 | inactive: 19.4% | –
21 | CC1CCN(C(=O)c2cc(F)c(F)cc2Cl)CC1 | – | inconclusive [inhibitor, full curve, poor fit]
22 | COc1ccc(N=C2SCC(=O)N2CCc2ccc(OC)c(OC)c2)cc1 | inactive: 4.17% | –
23 | CC(C)(C)NC(=O)CN(C(=O)c1ccc(CN2CCOCC2)o1)c1ccc2c(c1)OCCO2 | – | inconclusive [inhibitor, full curve, poor fit]

Row | Structure (SMILES) | activity change, negative = inhibition | Potency
24 | O=C(Cc1coc2ccc3ccccc3c12)NCc1ccccc1 | – | inconclusive [inhibitor, full curve, poor fit]
25 | O=S(=O)(c1ccc(F)c(F)c1F)N1CCN(C(=S)NC2CC3CCC2C3)CC1 (configuration not stated) | – | inconclusive [inhibitor, full curve, poor fit]
26 | COCCCNc1c2c3c(cccc3[nH]c1=O)C(=O)c1ccccc1-2 | – | inconclusive [inhibitor, full curve, poor fit]
27 | COc1cc2[nH]cc(C(=O)NCCc3ccccc3)c(=O)c2cc1OC | – | inconclusive [inhibitor, partial curve, poor fit]
28 | COc1ccc(C(=O)NOCc2ccccc2)cc1 | – | inconclusive [inhibitor, partial curve]
29 | Cc1ccc(C)c(N(C)C(=O)CCS(=O)(=O)c2cccc3nonc23)c1 | inactive: -8.23% | –
30 | Cc1ccc(-n2cnc(=O)c3cccnc32)cc1 | – | inconclusive [inhibitor, single point]
31 | CCCSc1nc(N)c2c3c(sc2n1)CN(C)CC3 | – | inconclusive [inhibitor, partial curve]
32 | CCN1CCN(c2cc(C)c3cc(NC(=O)c4cccs4)ccc3n2)CC1 | inactive: -0.503% | –
33 | Cc1cc(C(=O)NCC(=O)OCC(=O)Nc2ccc(OC(F)F)cc2)ccc1[N+](=O)[O-] | – | inconclusive [inhibitor, partial curve, poor fit]
34 | O=C(OCC(=O)N1CCOCC1)c1ccc2ccccc2c1 | – | inconclusive [inhibitor, single point]
35 | CN(C)/C=C(/C(=O)c1ccc(Cl)cc1)n1cncn1 | – | inconclusive [inhibitor, full curve, poor fit]
36 | Cc1[nH]n2c(=O)c3c(nc2c1-c1ccccc1)CCCC3 | – | inconclusive [inhibitor, full curve]
37 | Cc1cccc(-n2c(SCC(=O)N3CCN(c4ccccn4)CC3)nnc2N2CCOCC2)c1 | – | inconclusive [inhibitor, full curve]
38 | COc1ccccc1OCCn1c(NC(=O)c2ccccc2Cl)nc2ccccc21 | inactive: -5.09% | –
39 | O=C(CCc1c[nH]c2ccccc12)NCCOc1ccccc1 | – | inconclusive [inhibitor, full curve, poor fit]
40 | O=C(CN1C(=O)COc2ccccc21)c1cccc(Cl)c1 | – | inconclusive [inhibitor, full curve, poor fit]
41 | COc1ccccc1N1CCN(c2nccc(C)n2)CC1 | – | inconclusive [inhibitor, full curve, poor fit]
42 | COc1ccc(CN(C)C(=O)c2ccc(Oc3ccccc3)cc2)cc1F | – | inconclusive [inhibitor, partial curve, poor fit]
43 | CS/C(=N\S(=O)(=O)c1ccc(N)cc1)NS(=O)(=O)c1cccs1 | – | inconclusive [inhibitor, partial curve, poor fit]
44 | CC(=O)c1sc(N2CCOCC2)nc1-c1ccccc1 | – | inconclusive [inhibitor, full curve, poor fit]
45 | CCOC(=O)CN1C(=O)COc2ccc(C(C)(C)C)cc21 | – | inconclusive [inhibitor, full curve, poor fit]
46 | CC(=O)Nc1cccc(NC(=O)CSc2nc3ccccc3o2)c1 | – | inconclusive [inhibitor, full curve, poor fit]

Row | Structure (SMILES) | activity change, negative = inhibition | Potency
47 | CCn1cc(Br)c(-c2nc3ccccc3c(=O)n2N)n1 | inactive: -3.74% | –
48 | CN(C(=O)COC(=O)c1cc(-c2ccc(Cl)s2)nc2ccccc12)C1CCS(=O)(=O)C1 (configuration not stated) | – | inconclusive [inhibitor, single point]
49 | Cc1ccc(NC(=O)/C=C/c2ccco2)nc1 | inactive: -0.796% | –
50 | Cc1ccc(C(=O)NCC(=O)NCCSc2ccc(Br)cc2)cc1 | – | inconclusive [inhibitor, full curve]
51 | COc1ccc2c(c1OC)C(=O)N1N=C(c3ccc(Cl)cc3)CC21 (configuration not stated) | – | inconclusive [inhibitor, full curve, poor fit]
52 | Cn1ncc([N+](=O)[O-])c1C(=O)N1CCOCC1 | – | inconclusive [inhibitor, full curve, poor fit]
53 | CC(=O)c1cc(C#N)c(N2CCOCC2)nc1C | – | inconclusive [inhibitor, partial curve]
54 | CCOC(=O)C1CCCN(c2c(NCCc3ccc(C)cc3)c(=O)c2=O)C1 (configuration not stated) | inactive: -2.37% | –
55 | O=C1C(=O)N(c2ccccn2)C(c2cccc([N+](=O)[O-])c2)/C1=C(/O)c1ccc(Br)cc1 (configuration not stated) | – | inconclusive [inhibitor, full curve]
56 | O=C(Nc1ccc2c(c1)OCO2)N1CCN(c2ccccc2Cl)CC1 | inactive: 11.4% | –
57 | C=CCN1C(=O)NC(=O)/C(=C/c2cnc(SC)nc2)C1=O | – | inconclusive [inhibitor, full curve, poor fit]
58 | CCOC(=O)c1c(C)[nH]c(C(=O)CSc2nnc(-c3cccs3)n2Cc2ccccc2)c1C | – | inconclusive [inhibitor, single point]
59 | O=C(NC(=S)N1CCCC1)c1ccccc1F | – | inconclusive [inhibitor, full curve, poor fit]
60 | O=C(Cn1c(=O)n(-c2ccccc2)c(=O)n1CC(=O)N1CCCCC1)N1CCCCC1 | – | inconclusive [inhibitor, full curve, poor fit]
61 | N#C/C(=N\Nc1ccccc1)C(N)=S | inactive: 3.57% | –
62 | CC(C)C(NCc1c(Cl)cccc1Cl)C(=O)O (configuration not stated) | – | inconclusive [inhibitor, partial curve]
63 | O=c1[nH]c2ccc(NC(=S)Nc3ccccc3Cl)cc2[nH]1 | inactive: -3.83% | –
64 | COc1ccc(NS(=O)(=O)c2cccc(C(=O)NCC(c3ccccc3)N(C)C)c2)cc1 (configuration not stated) | inactive: -18.7% | –
65 | Cc1nn(-c2ccc(N3CCOCC3)nn2)c(C)c1CCC(=O)NCc1ccc(Cl)cc1 | inactive: 2.06% | –
66 | CC(C)c1ccc(NS(=O)(=O)c2cn(C)c(=O)n(C)c2=O)cc1 | – | inconclusive [inhibitor, full curve, poor fit]
67 | CCOc1ccc(C2C=C(c3ccccc3)Nc3nnnn32)cc1 (configuration not stated) | – | inconclusive [inhibitor, partial curve, poor fit]
